Inconclusive results and toxic doses are left out. For part of its entries the source gives two or more results. The list is limited to them. An entry can have further records. The values listed for one entry do not match, cause unknown; dose, time, organism, isomer or construct need not be as stated for each record. Square brackets hold non-standard residues; d marks the D form. Peptide text beside a SMILES is read from it. ξ: configuration not given here. Ac5c = NC1(C(=O)O)CCCC1; ξS = NC(CO)C(=O)O

In this test the test system is BDF1 mice, B16 melanoma ip, median survival T/C. The test is described as follows: NCI In Vivo Anticancer Drug Screen. Data for tumor model B16 Melanoma (intraperitoneal) in B6D2F1 (BDF1) mice. The following applies: endpoint: median survival time, higher = longer survival. As to the method:
The antitumor activity of compounds was measured in mice bearing transplantable tumors. Survival or tumor size were measured and the results are expressed as the measurement made in the treated group (T) divided by the measurement made in the vehicle treated control group (C). The tumor model used in this assay is B16 Melanoma (intraperitoneal) in B6D2F1 (BDF1) mice

On to `CC[N+](CC)(CC)CC`, for which, for the setting “dose: 25.0 mg/kg/injection, schedule: Q01DX009 (ip), vehicle: saline”, the T/C is 112 % of control and 151 % of control.

With `COc1cccc2c1C(=O)c1c(O)c3c(c(O)c1C2=O)C[C@H](O)C[C@@H]3OC1CC(N)C(O)C(C)O1` (stereo partly drawn), the T/C (dose: 25.0 mg/kg/injection, schedule: Q01DX001 (ip), vehicle: water) is 115 % of control, 168 % of control, 189 % of control.

`NC(CO)C(=O)NC1(C(=O)O)CCCC1` (stereo not drawn) (H-[ξS]-[Ac5c]-OH): the T/C (dose: 200.0 mg/kg/injection, schedule: Q04DX003 (ip), vehicle: saline with Tween-80) is 103 % of control and 150 % of control.

Turning to `O=P1(N(CCCl)CCCl)NCCCO1` (stereo not drawn), the T/C (dose: 50.0 mg/kg/injection, schedule: Q01DX009 (ip), vehicle: saline with Tween-80) is 119 % of control and 160 % of control.

As to `COc1cccc2c1C(=O)c1c(O)c3c(c(O)c1C2=O)C[C@@](O)(C(=O)COC(=O)c1cccnc1)C[C@@H]3OC1CC(N)C(O)C(C)O1` (stereo partly drawn), for the setting “dose: 1.5 mg/kg/injection, schedule: Q01DX001 (ip), vehicle: water”, the T/C was 101 % of control, 158 % of control, 169 % of control.

For `CC1OC(OC2CC(O)(C(=O)CO)Cc3c(O)c4c(c(O)c32)C(=O)c2ccccc2C4=O)CC(N)C1O` (stereo not drawn), for the setting “dose: 3.0 mg/kg/injection, schedule: Q01DX001 (ip), vehicle: water”, the T/C was 98 % of control and 307 % of control.

Take `CO[C@H]1C[C@](C)(O)Cc2cc3c(c(O)c21)C(=O)c1c(O)cc2c(c1C3=O)O[C@@H]1O[C@@]2(C)[C@H](O)[C@@H](N(C)C)[C@@H]1O`: the T/C was 112 % of control and 151 % of control (dose: 50.0 mg/kg/injection, schedule: Q01DX001 (ip), vehicle: water); 110 % of control and 159 % of control (dose: 100.0 mg/kg/injection, schedule: Q01DX001 (ip), vehicle: water); 114 % of control and 151 % of control (dose: 200.0 mg/kg/injection, schedule: Q01DX001 (ip), vehicle: water).

Turning to `OC(C1CO1)C(O)C1CO1` (stereo not drawn), the T/C reads like this: (dose: 2.0 mg/kg/injection, schedule: Q04DX003 (ip), vehicle: saline) 119 % of control and 156 % of control; (dose: 4.0 mg/kg/injection, schedule: Q04DX003 (ip), vehicle: saline) 123 % of control and 195 % of control.

Take `O=C1NC2(CCCCC2)C(=O)N1CCN(CCCl)CCCl`: the T/C reads like this: (dose: 1.5 mg/kg/injection, schedule: Q01DX009 (ip), vehicle: saline with Tween-80) 109 % of control and 154 % of control; (dose: 3.0 mg/kg/injection, schedule: Q01DX009 (ip), vehicle: saline with Tween-80) 118 % of control and 186 % of control.

Source of the values: PubChem BioAssay AID192 (DTP/NCI, 2004).
